# Results: publication PMC4336329 (PLoS ONE, 2015)
# In all, about 310,000 compounds went through this assay and about 2,200 (0.71%) showed an effect of 50% or more. The effect is printed as a negative number. Some of the results follow.
# Molecular target: human ether-à-go-go-related gene (hERG) potassium channel (human, UniProt Q12809)
# Assay: primary screen, population patch clamp on CHO cells stably expressing hERG
# Chain of human ether-à-go-go-related gene (hERG) potassium channel (Q12809 whole entry, looked up): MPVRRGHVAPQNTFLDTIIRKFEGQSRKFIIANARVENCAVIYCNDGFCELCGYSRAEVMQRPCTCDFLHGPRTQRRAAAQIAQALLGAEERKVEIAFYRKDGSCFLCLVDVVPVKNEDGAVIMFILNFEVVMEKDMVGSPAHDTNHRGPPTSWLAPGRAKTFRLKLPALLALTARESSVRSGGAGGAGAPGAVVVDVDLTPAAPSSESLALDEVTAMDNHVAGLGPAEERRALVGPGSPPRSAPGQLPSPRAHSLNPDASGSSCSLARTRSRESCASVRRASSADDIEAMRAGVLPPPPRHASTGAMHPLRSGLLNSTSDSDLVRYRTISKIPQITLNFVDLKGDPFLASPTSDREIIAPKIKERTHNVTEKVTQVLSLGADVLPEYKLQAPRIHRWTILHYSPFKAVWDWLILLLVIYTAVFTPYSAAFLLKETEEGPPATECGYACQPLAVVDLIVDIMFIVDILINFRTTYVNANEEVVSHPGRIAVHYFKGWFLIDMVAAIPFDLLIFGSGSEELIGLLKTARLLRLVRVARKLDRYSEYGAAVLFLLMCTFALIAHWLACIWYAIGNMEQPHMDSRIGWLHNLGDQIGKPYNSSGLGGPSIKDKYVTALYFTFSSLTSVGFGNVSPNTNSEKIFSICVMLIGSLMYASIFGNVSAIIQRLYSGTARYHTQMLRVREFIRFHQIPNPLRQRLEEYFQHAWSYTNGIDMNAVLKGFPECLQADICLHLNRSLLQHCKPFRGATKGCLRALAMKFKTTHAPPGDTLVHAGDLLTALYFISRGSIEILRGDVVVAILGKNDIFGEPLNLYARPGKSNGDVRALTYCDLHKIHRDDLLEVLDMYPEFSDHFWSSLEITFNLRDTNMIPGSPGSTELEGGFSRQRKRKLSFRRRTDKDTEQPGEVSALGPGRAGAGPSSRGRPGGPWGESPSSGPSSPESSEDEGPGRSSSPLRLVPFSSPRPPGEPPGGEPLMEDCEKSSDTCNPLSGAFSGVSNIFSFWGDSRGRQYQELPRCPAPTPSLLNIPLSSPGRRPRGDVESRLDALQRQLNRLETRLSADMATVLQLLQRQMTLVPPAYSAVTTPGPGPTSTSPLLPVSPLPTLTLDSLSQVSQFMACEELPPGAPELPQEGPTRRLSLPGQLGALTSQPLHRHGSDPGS
row,Structure (SMILES),"hERG current change (%, negative = inhibition) at 1uM [%]"
1,Cc1cccc(NS(=O)(=O)c2cccc(C(=O)N3CCN(S(=O)(=O)c4ccccc4)CC3)c2)c1,6.66
2,CC(C)C(=O)Nc1ccc2c(c1)nc(CCN1CCCCC1)n2C,8.94
3,Cc1ccc2[nH]c3c(c2c1)CN(C(=O)CN1CCN(c2cccc(C)c2C)CC1)CC3.Cl,8.51
4,Cc1cc(C)c(S(=O)(=O)Nc2cccc(S(=O)(=O)N3CCOCC3)c2)c(C)c1,3.29
5,Cc1csc(-c2coc3cc(O)cc(C)c3c2=O)n1,12.2
6,Cc1nn(Cc2ccccc2Cl)c(C)c1C(=O)NCC(c1cccs1)N1CCOCC1 (stereo not drawn),7.73
7,O=c1[nH]c(=S)n(-c2ccccc2)c(O)c1/C=N/N1CCOCC1,-9.19
8,CCC(=O)N1CCC2(CC1)Oc1ccc(Cl)cc1C(=O)C21CC(c2ccccc2)=NO1 (stereo not drawn),19.1
9,CCOC(=O)c1sc(NC(=O)c2ccco2)c(C#N)c1C,9.25
10,COc1ccc(C(C)=O)cc1CSc1nc2ccccc2o1,10.7
11,Cc1ccc(NC(=O)c2ccc3ccccc3n2)nc1,6.59
12,CCOC(=O)Cn1ccc(NC(=O)c2ccc(F)cc2)n1,10.6
13,CCN(CC)C(=S)NC(=O)c1ccc(Cl)cc1Cl,9.21
14,O=C(O)c1ccc(N/N=C/C=C/c2ccc([N+](=O)[O-])o2)cc1,9.41
15,CCCn1c(=O)c2ccccc2n2c(SCCOc3ccccc3)nnc12,4.76
16,COC(=O)[C@H](CCSC)NC(=O)NCCc1ccc(F)cc1,5.97
17,Cc1ccc(S(=O)(=O)Nc2ccc(O)c3cccnc23)cc1,2.8
18,CSc1ccc(S(=O)(=O)NCc2ccc(Cl)cc2)cc1,-8.66
19,CCOc1ccc(N2CC(C(=O)Nc3ccc4c(c3)OCCO4)CC2=O)cc1 (stereo not drawn),13.2
20,CCOC(=O)[C@H]1[C@H]2COc3ccc(Cl)cc3[C@@H]2N2C(=O)CNC(=O)[C@@]12C,20.5
21,CCOC(=O)c1sc(NC(=O)C(CC)Sc2nc3ccccc3[nH]2)nc1C (stereo not drawn),4.28
22,CN1CCCNc2nc3ccccc3nc21,11.3
23,O=C(O)C1(Cc2nc3ccccc3[nH]2)CCCC1,17.6

row,Structure (SMILES),"hERG current change (%, negative = inhibition) at 1uM [%]"
1,Nc1cnn(C2CCCO2)c(=O)n1 (stereo not drawn),13
2,Cc1ccc(CN2CCN(Cc3nc(C(C)C)cs3)CC2CCO)cc1 (stereo not drawn),-50.8
3,CC(=O)Nc1ccc2c(c1)CCC2=O,-6.12
4,COC(=O)c1ccc(CSc2cc(C)c3cccc(C)c3n2)o1,1.89
5,COC(=O)c1ccccc1NC1CC(=O)N(c2c(C)cccc2C)C1=O (stereo not drawn),5.32
6,CCCc1cc(C(=O)NCc2cccs2)no1,8.75
7,COc1ccc(OC)c2sc(NC(=O)C(C)C)nc12,5.32
8,Cc1ccc(NC(=O)NNC(=O)c2cc3ccccc3cc2O)cc1,19
9,Nc1nccnc1C(=O)N/N=C/c1ccco1,13.2
10,CCC1(c2ccccc2)NC(=O)N(CC(=O)Nc2ccccc2C(=O)N2CCCCC2)C1=O (stereo not drawn),8.29
11,CCCSc1ncnc2c1oc1ccccc12,-3.78
12,CS(=O)(=O)N(CC(=O)N/N=C/c1cccs1)c1cccc(Cl)c1Cl,2.6
13,Cc1ccc(CNC(=O)CN(CCc2ccccc2)S(C)(=O)=O)cc1,1.12
14,COc1ccc(-c2nnc(NC(=O)CS(=O)(=O)c3ccc(F)cc3)o2)c(OC)c1,12.6
15,Cc1ccc(N2CCN(S(=O)(=O)N3CCCCC3)CC2)c(C)c1,16.5
16,CC1=C(C(=O)OC2CCCCC2)C(c2cccnc2)n2ncnc2N1 (stereo not drawn),13
17,S=C(NCc1ccc(Cl)cc1)Nc1ccccc1,0.965
18,Cc1sc(NC(=O)CN(Cc2ccccc2)C(=O)C2CC2)c(C(N)=O)c1C,12.5
19,Cc1cccc(C)c1OCc1cc(C(=O)N2CCNC(=O)C2)no1,4.59
20,O=C(Cn1[nH]c(=O)c2ccccc2c1=O)OCC(=O)N1CCc2ccccc2C1,-1.11
21,COc1ccc(N2C(=O)CCC2(C(N)=O)c2ccccc2)cc1 (stereo not drawn),4.96
22,COc1ccc(C(=O)Oc2ccc(/C=N/NC(=O)c3ccccc3OC)cc2[N+](=O)[O-])cc1,-0.102
